Some of the results follow.
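Note: jurkat cells carrying a lentiviral library of mutant zinc finger degrons fused to EGFP plus mCherry, mCherry+ cells FACS sorted, degron abundance counted by next-generation sequencing.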

The target of the assay is no compound (DMSO). Nature of the assay: log2 fold change of degron read counts, EGFP-low vs EGFP+ sorted cells; higher = lower degron-EGFP level without compound (poor expression or instability). To be noted: compound: DMSO control; 18 h.
In the case of FWCNQCGHVFTQKGNLLRHIKL, the “log2 fold change of degron read counts” value is 1.07.
On to LGCNQCGFSCTQKGNLLRHIKL, for which the “log2 fold change of degron read counts” value came to 0.828.
Consider FVCNQCGRCFTQKGNLLRHIKL, for which the “log2 fold change of degron read counts” value is -0.418.
Consider FCCSVCGHQFTQKGNLLRHIKL, for which the “log2 fold change of degron read counts” value is -1.19.
With FACPICGRNFTQKGNLLRHIKL, the “log2 fold change of degron read counts” value was -0.353.
In the case of FNCEICGRCFTQKGNLLRHIKL it was -1.35; in that of FICEVCGARFTQKGNLLRHIKL, -1.07.
Take FWCPICGRNFTQKGNLLRHIKL: the “log2 fold change of degron read counts” value amounted to 0.116.
On to FECNQCGAVFTQKGNLLRHIKL, for which the “log2 fold change of degron read counts” value is -1.57.
To FGCPVCGALFTQKGNLLRHIKL belongs -0.454; to FRCEICGHKFTQKGNLLRHIKL, -0.961; to FQCNQCGHMFTQKGNLLRHIKL, -0.469.
To FLCDQCGAAFTQKGNLLRHIKL belongs -1.11; to FACDICGAEFTQKGNLLRHIKL, -1.41.

The values are drawn from the supplement of paper PMC12645437, “Orthogonal IMiD-Degron Pairs Induce Selective Protein Degradation in Cells” (ACS Chemical Biology, 2025).
